# Reference: the supplement of paper PMC3334620
# In all, about 33,000 sequences were measured (“E-score (-0.5 to 0.5)”: median about -0.021, highest 2% from about 0.32 on). Some of the results follow.
# Biological target: T1, Zap1 (UniProt P47043)
# T1 sequence: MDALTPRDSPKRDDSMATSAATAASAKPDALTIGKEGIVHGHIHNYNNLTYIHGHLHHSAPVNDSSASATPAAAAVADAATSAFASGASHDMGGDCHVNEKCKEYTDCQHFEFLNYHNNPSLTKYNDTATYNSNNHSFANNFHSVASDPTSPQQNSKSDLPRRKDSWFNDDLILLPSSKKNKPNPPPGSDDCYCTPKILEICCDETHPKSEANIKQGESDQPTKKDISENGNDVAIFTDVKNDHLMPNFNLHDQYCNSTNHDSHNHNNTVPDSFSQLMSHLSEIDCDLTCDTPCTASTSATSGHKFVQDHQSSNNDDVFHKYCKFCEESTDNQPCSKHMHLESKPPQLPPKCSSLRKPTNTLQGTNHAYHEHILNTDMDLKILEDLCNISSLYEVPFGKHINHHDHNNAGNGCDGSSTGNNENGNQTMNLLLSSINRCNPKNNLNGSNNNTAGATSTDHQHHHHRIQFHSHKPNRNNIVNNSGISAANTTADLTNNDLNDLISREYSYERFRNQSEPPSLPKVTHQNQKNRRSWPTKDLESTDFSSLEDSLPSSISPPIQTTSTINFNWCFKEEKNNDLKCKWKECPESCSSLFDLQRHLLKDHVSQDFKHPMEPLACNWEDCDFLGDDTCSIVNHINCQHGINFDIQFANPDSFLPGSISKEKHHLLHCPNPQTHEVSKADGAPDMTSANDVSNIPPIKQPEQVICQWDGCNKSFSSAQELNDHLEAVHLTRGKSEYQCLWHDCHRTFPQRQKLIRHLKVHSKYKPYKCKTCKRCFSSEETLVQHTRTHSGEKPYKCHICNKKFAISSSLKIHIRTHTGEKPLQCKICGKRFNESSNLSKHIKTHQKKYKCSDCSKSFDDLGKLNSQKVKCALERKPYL
# Assay: PBM E-score (8-mer binding enrichment) (E-score (-0.5 to 0.5)); higher = stronger / more preferred TF binding; most listed sequences are background and not binding sites
# Details: protein concentration: 200 nM; construct: GST-full length
# Summary of the method: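 Each ungapped eight-base word and its reverse complement, pooled, received an E-score from the Universal PBM Analysis Suite. Underlying scans, normalised with masliner, recorded fluorescent anti-GST bound to GST-tagged yeast transcription factors. These were applied at about 100-200 nM to universal all-10-mer Agilent arrays double-stranded by primer extension.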
row,Sequence,PBM E-score
1,ATGCTTGA,0.0482
2,ATGCGCGA,-0.117
3,TCGATCCA,-0.0992
4,ATCACAAG,0.0907
5,ACTGGAGA,-0.271
6,AGGTTTAC,0.145
7,AGAGGACT,-0.252
8,GGGTATCA,0.168
9,ATCCGATA,-0.0474
10,AAGTACAA,0.0203
11,CACGACAA,-0.104
12,CTCCCCTC,-0.158
13,CTGAGAAA,-0.0449
14,CTCTTTTC,-0.109
15,GACGTGTA,-0.237
16,AACACGAA,0.143
17,AAGATGCG,-0.058
18,CTCCCGGA,-0.163
19,GAAGGCTA,-0.181
20,CTATGAAC,-0.0327
21,GCTGAAAA,0.163
22,AACACCAC,0.0741

row,Sequence,PBM E-score
1,AGTAGTCA,-0.276
2,CGGATCCA,0.00476
3,GAGTGTCC,0.0649
4,AATAACCT,0.454
5,ACATTCAA,0.00989
6,AGGCATAC,-0.151
7,ACGTCACG,-0.147
8,CGGAATGC,-0.136
9,AATGGCCC,0.0145
10,AGCTTACC,-0.0573
11,GAGGTGAC,0.308
12,CCATCATA,-0.163
13,AAAGCAGT,0.209
14,GAGACAAC,-0.0115
15,ACTCAGAA,0.138
16,AGGTTAAT,0.315
17,CAGACCTG,-0.119
18,CTTATCTC,0.0241
19,AACGAGGG,-0.12
20,AAGGTGCG,-0.174
21,GCTGTACC,0.0296
22,CCGGGACA,0.00573

row,Sequence,PBM E-score
1,AGGATTAG,-0.0739
2,ACTCTCTG,-0.0657
3,ATTTGTTC,0.214
4,CGCACGCC,-0.0515
5,GGTCGTAA,0.224
6,GGCCCGAC,-0.0703
7,AACTCTTA,0.0943
8,ATCGAGGA,0.0204
9,CGCACCGC,0.0659
10,ATGTATTA,-0.0657
11,GACATCGA,-0.116
12,GTTACGGA,0.213
13,AAGCTACC,0.183
14,TACTCGCA,0.139
15,ACACTCAA,0.139
16,ACCTGCCC,0.0678
17,AATGCCAA,0.101
18,AAACAAGC,-0.0864
19,AACGGTCC,-0.114
20,AGCACCTG,-0.172
21,GCTATACC,0.0485
22,CGCTCACC,-0.0494

row,Sequence,PBM E-score
1,CGACTGCA,-0.0386
2,AACCGACT,-0.201
3,AACAAACC,0.102
4,AGTGACTA,0.0436
5,ACAGATGC,-0.171
6,GCAAAAAC,0.136
7,AGGCCATG,0.128
8,ACCTATAG,0.3
9,CTCAAGAC,-0.0417
10,TCAGTAAA,0.155
11,CCTCATAC,0.0122
12,CGTCCCAA,-0.0759
13,GTTAACTA,0.263
14,CGCCGCGA,0.0914
15,CTCACCCC,-0.015
16,CATCTCCC,-0.145
17,ATGGCCAC,0.185
18,TAAGAGGA,-0.0917
19,ATGAAAAT,0.156
20,AAAATTAC,0.201
